Data reported in PubChem BioAssay AID588501 (NMMLSC, 2011).
Out of some 360,000 compounds screened, about 420 (0.12%) were called active. The shares of active, inactive and inconclusive entries below differ from those in the screen. Cut-off read from the data, not from the text of the source: active = inhibition above about 30%; inconclusive = no clear call, values can overlap the other calls; inactive = below that.

molecular target: Lethal factor (Bacillus anthracis) (UniProt P15917); test: anthrax lethal factor cleavage blockers – biochemical, multiplex microsphere, MLPCN library, primary screen (AID 588501); settings: multiplex microsphere protease cleavage assay, LF; at 10 µM; hits give high values; note: plate controls were buffer without enzyme for full effect and enzyme alone for no effect
UniProt P15917, sequence (P15917 whole entry, looked up): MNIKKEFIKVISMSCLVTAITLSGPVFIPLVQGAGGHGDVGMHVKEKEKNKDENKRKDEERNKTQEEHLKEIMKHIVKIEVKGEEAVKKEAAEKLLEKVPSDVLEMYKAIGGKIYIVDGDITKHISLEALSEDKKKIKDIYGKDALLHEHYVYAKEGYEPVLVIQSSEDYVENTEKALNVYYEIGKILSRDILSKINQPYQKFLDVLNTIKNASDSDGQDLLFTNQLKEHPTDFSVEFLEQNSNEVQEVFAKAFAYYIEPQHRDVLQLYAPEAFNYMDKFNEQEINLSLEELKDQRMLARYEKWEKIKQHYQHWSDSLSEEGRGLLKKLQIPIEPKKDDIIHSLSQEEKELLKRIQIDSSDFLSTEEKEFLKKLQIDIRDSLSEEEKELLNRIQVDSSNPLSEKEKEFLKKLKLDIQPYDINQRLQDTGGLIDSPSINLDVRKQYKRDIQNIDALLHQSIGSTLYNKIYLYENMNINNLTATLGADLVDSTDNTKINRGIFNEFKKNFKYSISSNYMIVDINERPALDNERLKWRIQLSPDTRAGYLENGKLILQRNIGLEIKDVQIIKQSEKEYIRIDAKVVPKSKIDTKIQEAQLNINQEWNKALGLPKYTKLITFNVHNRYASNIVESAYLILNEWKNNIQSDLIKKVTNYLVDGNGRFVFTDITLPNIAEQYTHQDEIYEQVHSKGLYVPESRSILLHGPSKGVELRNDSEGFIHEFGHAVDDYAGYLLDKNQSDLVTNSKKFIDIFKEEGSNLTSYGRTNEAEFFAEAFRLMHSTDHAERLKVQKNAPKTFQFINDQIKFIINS

SMILES | inhibition
Oc1cccc(/C=N/NP(=S)(c2ccccc2)c2ccccc2)c1 | inconclusive: -7.8%
NC(=O)C1CCN(C(=O)C(=O)c2cn(CC(=O)N3CCCCCC3)c3ccccc23)CC1 | active: 38.9%
CCOC(=O)c1ccccc1NC(=O)COC(=O)c1ccccc1C(=O)N(C)c1ccccc1 | inconclusive: 5%
O=C(Nc1ccc(Nc2ccncc2)cc1)c1ccc([N+](=O)[O-])cc1 | active: 35.8%
CCCOc1ccc(/C=C/C(=O)Nc2ccc([N+](=O)[O-])cc2C)cc1OC | inactive: 2.1%
O=c1c(O)c(-c2cccs2)oc2ccc(Cl)cc12 | active: 32.3%
COc1ccc(NC(=O)c2cc(S(=O)(=O)N3CCCC3)ccc2C)cn1 | active: 44.9%
Cc1[nH]c(C)c2c(=O)n(Cc3ccccc3Cl)ncc12 | inconclusive: -21.2%
CCc1ccc(NC(=O)C(C)OC(=O)c2ccc(-n3cnnn3)cc2)cc1 (stereo unspecified) | inconclusive: -3.1%
CCOC(=O)C1CCN(Cc2ccc(O)c(OC)c2)CC1 | inconclusive: -8.6%
O=C(O)COc1ccc(S(=O)(=O)c2ccc(OCC(=O)O)cc2)cc1 | inconclusive: -17.8%
COc1ccccc1CNC(=O)COC(=O)c1ncc(Cl)c(Cl)c1Cl | inconclusive: -2.7%
COc1ccc(-c2oc3c(OC)c(OC)c(OC)c(O)c3c(=O)c2OC)cc1OC | active: 33.8%
CC(=O)C1C2c3ccccc3OC1(C)N=c1s/c(=C/c3cn(C)nc3C)c(=O)n12 (stereo unspecified) | inactive: 10.2%
COc1cc(NC(=O)C2CSC3(C)CCC(=O)N23)c(OC)cc1Cl (stereo unspecified) | inactive: 2.5%
CCOc1cccc(-c2cc(NCCc3ccccn3)n3nccc3n2)c1 | inactive: -27.5%
Cc1cnc(C(=O)OCC(=O)c2ccc[nH]2)cn1 | inconclusive: 0.6%
N#CCC(=O)N1CCN(C(c2ccccc2)c2ccccc2)CC1 | inconclusive: -0.2%
CC1CCC(NC(=O)Cn2c(=O)[nH]c3ccsc3c2=O)CC1 (stereo unspecified) | inconclusive: -19.7%
NC(N)=NN=C1c2ccccc2-c2ccccc21 | active: 49.4%
Nc1nc(-c2c[nH]c3ccccc23)cs1 | inconclusive: -0.5%
CN(C)S(=O)(=O)c1ccc(N2CCCC2)c(C(=O)Nc2ccc(C(N)=O)cc2)c1 | inconclusive: -5.5%
COc1ccc(Cl)cc1C(=O)Nn1cnnc1 | inactive: -16.2%

SMILES | inhibition
O=C(Nn1c(O)c(C=C2N=c3ccccc3=N2)sc1=S)c1ccc(Cl)cc1 | active: 69.9%
CCN(CC)S(=O)(=O)c1cccc(NC(=O)COC(=O)c2cncc(Br)c2)c1 | active: 39.2%
CC1CCCCN1C(=O)Nc1cccc(Cl)c1 (stereo unspecified) | inconclusive: -154%
COc1ccc(CNc2nc3nc(C)cc(C)n3n2)cc1OC | inconclusive: -11.1%
O=C(Cn1nc(C(F)(F)F)c2c1CCC2)NC1CCCCC1 | inconclusive: -0.7%
Cc1noc(C)c1CSCC(=O)N(C)CC(=O)Nc1ccc(F)cc1 | inconclusive: -0.1%
COc1ccccc1N1CCN(c2nc3c(C)cccn3c(=O)c2C=O)CC1 | inactive: -1.3%
CCOc1ccc(CC(=O)NCCS(=O)(=O)N2CCN(c3ccccc3)CC2)cc1 | inconclusive: 6.9%
Cc1ccc(/C=C2\SC(=S)N(Cc3ccccc3)C2=O)o1 | active: 35.8%
CCn1nc(C(=O)Nc2nc(-c3ccccn3)cs2)c2ccccc2c1=O | inconclusive: 7.6%
COC(=O)c1ccc(NC2CC(=O)N(c3ccccc3C)C2=O)cc1 (stereo unspecified) | inconclusive: -2.6%
O=C(CN1CCN(c2ccccc2O)CC1)Nc1ccc(S(=O)(=O)N2CCCCCC2)cc1 | inconclusive: 9.1%
Cc1ccc(N2CC(NS(=O)(=O)c3cccnc3)CC2=O)cc1 (stereo unspecified) | inconclusive: 1.1%
CC1(C)Cc2c(sc3nc[nH]c(=O)c23)CO1 | inactive: -2.1%
Cn1c(SCC(=O)Nc2ccccc2)nnc1-c1ccc2nonc2c1 | inactive: 6.3%
CC(C)c1ccc(C2CC(=O)N3CN(Cc4ccco4)CSC3=C2C#N)cc1 (stereo unspecified) | inconclusive: -8.2%
NS(=O)(=O)c1ccc(CCNC2CC(=O)N(CCc3ccccc3)C2=O)cc1 (stereo unspecified) | active: 52%
CN(CC(=O)Nc1cccc(F)c1)C(=O)CN1C(=O)C2CC=CCC2C1=O (stereo unspecified) | inconclusive: 6.5%
CNC(=O)c1c(NC(=O)c2ccc(S(=O)(=O)N3CCCc4ccccc43)cc2)sc2c1CCN(C)C2 | inconclusive: -3.4%
Cc1ccc(C(=O)N(CC(C)C)c2c(N)n(Cc3ccccc3)c(=O)[nH]c2=O)o1 | inconclusive: -6.1%
O=C1c2ccccc2C(=O)N1C1CCCCC1 | active: 49.8%
NS(=O)(=O)c1ccc(CCNC(=O)CCc2nc3sc4c(c3c(=O)[nH]2)CCCC4)cc1 | inconclusive: -4.8%
CC1CCCCN1C(=O)COC(=O)c1cc(Cl)c2c(c1)OCO2 (stereo unspecified) | inconclusive: 1.2%

SMILES | inhibition
O=C(N/N=C/c1ccc(O)cc1O)c1ccc(NC(=O)C2CCCCC2)cc1 | active: 36.3%
COc1ccc(CNC(=O)CSC(=S)N2CCCC2)cc1 | inconclusive: 0.2%
CCOC(=O)N1CCN(c2ccc(S(=O)(=O)N3CCC(C)CC3)cc2[N+](=O)[O-])CC1 | inconclusive: 0.2%
CCN1C(=O)/C(=C/C=C2\N(CC)c3cc(S(=O)(=O)N(C)C)ccc3N2c2ccccc2)SC1=S | active: 38%
Cc1cc(=O)n2[nH]c(C)c(-c3ccccc3)c2n1 | inactive: -2.2%
O=C1N/C(=N\S(=O)(=O)Cc2ccccc2)S/C1=C/c1cc([N+](=O)[O-])ccc1O | inconclusive: -22.5%
Cc1ccc(NC(=O)CSCC(=O)Nc2ccccc2N2CCCCC2)cc1 | inconclusive: 24.8%
Cn1c(=O)[nH]c(=O)c2c1nc(CN1CCN(c3cccc(Cl)c3)CC1)n2CCN1CCOCC1 | inactive: 2.6%
Cc1[nH]c2ccccc2c1-c1csc(N)n1 | inconclusive: -9.1%
CCN(CC(=O)Nc1c(F)cccc1F)C(=O)C1CCN(S(=O)(=O)c2ccc(C)cc2C)CC1 | inconclusive: -49.2%
O=C(COC(=O)c1ccccc1Cc1ccccc1)NC1CCS(=O)(=O)C1 (stereo unspecified) | inactive: 0.1%
Cc1cccc(NC(=O)C2CC(=O)N(Cc3ccccc3)C2)n1 (stereo unspecified) | inconclusive: -3.6%
Cn1c(SCC(=O)N/N=C/C=C/c2ccccc2[N+](=O)[O-])nc2ccccc21 | inactive: -0.7%
CSCCC(NC(=O)COc1ccccc1)C(=O)OCC(=O)c1ccccc1 (stereo unspecified) | inconclusive: -7.4%
c1ccc(-c2ccc(-c3ccccn3)s2)nc1 | inactive: 5.7%
CC1(c2ccccc2)NC(=O)N(CC(=O)Nc2ccc(S(=O)(=O)Nc3ncccn3)cc2)C1=O (stereo unspecified) | inconclusive: -0.9%
Cc1ccc(C(=O)c2oc3ccccc3c2NC(=O)c2cc(-c3cc(C)ccc3O)n[nH]2)cc1 | inactive: -8.5%
CCC(=O)NCCn1c(C)cc2ccccc21 | active: 33.2%
COc1ccc(S(=O)(=O)N2CCCCCC2)cc1C(=O)N(C)CCOc1ccccc1 | inconclusive: -5.5%
CC(OC(=O)c1cccc(S(=O)(=O)N2CCCC2)c1)C(=O)NC1CCCCC1C (stereo unspecified) | inconclusive: -1%
CC1C(C(=O)Nc2ccccc2)CCCC1(C)C(=O)O (stereo unspecified) | inconclusive: 6.2%
COc1cc(C)nc(Nc2nc(C)c(C(C)=O)s2)n1 | inactive: 3.1%
CCOC(=O)/C(C#N)=C/C=C1\C=Cc2ccccc2N1CC | active: 45.8%

SMILES | inhibition
CC(C)CC(=O)Nc1ccc(F)c(Cl)c1 | inconclusive: -4.6%
CN(C)CCCNc1nc(-c2ccccc2)c2c(c1C#N)CC(C)(C)OC2 | inactive: 0.2%
O=C(c1ccncc1)N1CCN(S(=O)(=O)c2cccc(Cl)c2)CC1 | inactive: 0.9%
Cc1cccc(CN2CCCC(C(=O)N3CCc4ccccc4C3)C2)c1 (stereo unspecified) | inconclusive: -17.2%
C/C(=N\O)c1cc(Cl)cc(Cl)c1O | active: 34.5%
COC(=O)c1nc(-c2ccccc2)nc(-c2ccccc2)c1C(=O)OC | inconclusive: -7.8%
CC(Nc1nc(N2CCCCC2)nc2ccccc12)c1ccccc1 (stereo unspecified) | inactive: -4.8%
Brc1ccc(-c2nc(-c3ccncc3)no2)o1 | inconclusive: 14.7%
Cc1ccc(NC(=S)NCCCN2CCOCC2)cc1C | inactive: 2.6%
O=C1/C(=C\c2ccc(Cl)c(Cl)c2)N2CCC1CC2 | active: 31.6%
COc1ccc(C(=O)NCCn2ccc3ccccc32)cc1 | active: 36.5%
COc1ccc(C(=O)Nc2nc(-c3ccc(OC)cc3)c(-c3ccc([N+](=O)[O-])cc3)s2)cc1 | active: 30.1%
CSc1ccc(C#N)cc1NC(=O)c1ccc(Cl)cc1Cl | inactive: 1.4%
CCCCCCC(=O)c1c(O)n(-c2ccccc2OC)c(=O)[nH]c1=O (tested in a mixture with another compound) | inconclusive: 12.7%
Cc1ccc(OC(=O)C2CSC3(C)CCC(=O)N23)c(Br)c1 (stereo unspecified) | inconclusive: 1%
COc1cc(C(C#N)N2CCC(c3ccccc3)=N2)ccc1O (stereo unspecified) | inactive: 7.4%
COCC(=O)Nc1nnc(CCc2ccccc2)s1 | inconclusive: -23.8%
COc1ccc(C2CC(=O)c3cnc(NC(=O)c4ccccc4)nc3C2)cc1OC (stereo unspecified) | inactive: 1.8%
O=C(O)CCCN1C(=O)/C(=C/c2ccc(-c3nc4ccccc4s3)o2)SC1=S | active: 39.8%
O=C(COc1ccc(Br)cc1)Nc1ccccc1C(=O)NC1CC1 | inconclusive: 0.7%
COc1ccc(CNC(=O)C2CCN(C(=O)c3ccc(-c4ccccc4)cc3)CC2)cc1 | active: 31.9%
COc1ccc(C(C)=O)cc1COc1cc(C)c(Cl)c(C)c1 | inconclusive: -34.4%
